Results published in patent US10765754B2, “Compositions and methods related to inhibition of respiratory syncytial virus entry” (priority 2015, dated 2020).
pIC50, pKd: −log10 of the molar value. Several values for one entry are separate records, joined by “and”; a condition that tells them apart may be missing. Identical values can stand only once. Like-named read-outs stand apart in the source and are kept apart here. For some assays here: Part of at least one peptide drawing is inferred or uncertain, most often the ends. For some assays here: At least one compound was matched to its structure with a doubt left. Starred links: 1 amine or outer side, 2 acyl side, 3 side chain; linkers in the order of their positions; H or OH if unused. Positions of bridges follow the written chain, without caps; N, C: chain ends. Non-standard residues stand in square brackets, D forms with d. Residues, ends and D or L forms follow the SMILES beside them. Chains are numbered I, II in the order given. No end group written: not given here. *: point of attachment. X3 = CC(C)CCC[C@@H](C)[C@H]1CC[C@H]2[C@@H]3CC=C4C[C@@H](OC(=O)NCCOCCOCCOCCOCCC(=O)NCCOCCOCCOCCOCCOCCOCCOCCOCCOCCOCCOCCOCCOCCOCCOCCOCCOCCOCCOCCOCCOCCOCCOCCOCCOCCOCCOCCOCCC(=O)NC(CCC(=O)[*:1])(CCC(=O)[*:2])CCC(=O)[*:3])CC[C@]4(C)[C@H]3CC[C@]12C; X4 = CC(C)CCC[C@@H](C)[C@H]1CC[C@H]2[C@@H]3CC=C4C[C@@H](OC(=O)C*)CC[C@]4(C)[C@H]3CC[C@]12C; PEG6 = NCCOCCOCCOCCOCCOCCOCCC(=O)O

Legend:
[1] = biological target: T1, RSV-B/IZN45 (Human respiratory syncytial virus B, UniProt O36634); assay type: binding; details: synthesized peptide, KD determined by SPR
T1 construct: N-trimer Mimics Synthesized; made in house; host or cells: chemical peptide synthesis
Description: (§1) IZN45 N-trimer mimic comprises the IZ domain, a highly soluble, designed coiled-coil that helps solubilize the N-trimer, along with the C-terminal (bottom) 45 residues of the RSV N-trimer. IZN45 encompasses the full ordered portion of the N-trimer except for three N-terminal residues (removed to maintain a continuous heptad repeat with the IZ domain). The interactions between 35-residue RSV C-peptides, T108 and T118 (Lambert et al., 1996, Proc. Natl. Acad. Sci. USA 93:2186-2191), and IZN45 was examined by surface plasmon resonance (SPR). SPR is a gold standard assay to measure the kinetics and affinity of biological interactions. […] The Biotinylated L-form of RSV target IZN45 was captured onto one lane of a NeutrAvidin coated SPR chip. A mutant version of IZN45 containing four mutated residues along the N-trimer groove designed to disrupt binding (IZN45 Full Mut, negative control) was captured onto a separate lane of the NeutrAvidin chip. T118, corresponding to the C-terminal portion of the RSV F ectodomain, which is known to interact with the RSV N-trimer groove, was flowed over the various surfaces. […] The surfaces were regenerated with a detergent (0.1% SDS) after each injection of analyte. Various concentrations of T118 were measured in duplicate or triplicate injections. D-peptide interactions with IZN45 and IZN45-Full Mut surfaces were also measured using this method.
(§2) Peptides from the ‘winning’ phage clones from each library were synthesized as D-peptides. If solubility of the peptides was limited, N- or C-terminal charged residue(s) (e.g., lysine) were attached as necessary as previously described for HIV peptides in Eckert et al., 1999, Cell 99:103-15, incorporated by reference in its entirety. Binding affinity and kinetics of the D-peptide inhibitors to the IZN45 and IZN45 mutants was characterized by SPR (Biacore 3000), using methods as described in Welch et al., 2007, Proc. Natl. Acad. Sci. USA 104:16828-33, incorporated by reference in its entirety.

[2] = biological target: T2, RSV-A/IZN45 (Human respiratory syncytial virus A, UniProt P03420); assay: SPR binding to RSV-A IZN45 N-trimer mimic; details: synthesized peptide, KD determined by SPR
T2 construct: N-trimer Mimics Synthesized; made in house; host or cells: chemical peptide synthesis
Description: as §1, §2

[3] = biological target: T3, RSV-A F protein (Human respiratory syncytial virus A, UniProt P03420); assay type: cell-based
T3 construct: expressed in transfected cells; host or cells: 293 T cells
Procedure: The RSV Syncytia reduction assay was used to evaluate D-peptide inhibitors of RSV entry (IC50). In brief, 293 T cell were plated in a 96-well plate and a 6-well plate. The cells in the 96-well plate were co-transfected with DNA encoding the RSV F protein (or RSV G protein as a negative control) and DNA encoding firefly luciferase downstream of multiple GAL4 binding sites (CheckMate Mammalian Two-Hybrid system, Promega). These cells were designated the effector cells. The cells in the 6-well plate were transfected with GAL4:Id and VP16:MyoD fusion constructs, which interact and drive gene expression in the presence of GAL4 binding sites. These cells were the target cells. At 24 hours post-transfection, the media is removed from the effector cells and D-peptide inhibitors at 2× concentration (diluted in fresh media) were added. Also at 24 hours post-transfection, the target cells are washed with PBS, gently dissociated from the 6-well plate using Versene (0.48 mM EDTA in PBS), and overlaid (at equal volume) onto the effector cells containing 2× inhibitor. At 48 h post-transfection, the cells are lysed using Glo Lysis Buffer (Promega). Bright Glo luciferase assay substrate is added and luminescent signal from expressed luciferase is measured. Luciferase is only expressed in effector cells that fuse (form syncytia) with target cells.

[4] = subsequent trimer/compound made from peptide, syncytia reduction assay using RSV-A F protein

T3 sequence (P03420 137-574): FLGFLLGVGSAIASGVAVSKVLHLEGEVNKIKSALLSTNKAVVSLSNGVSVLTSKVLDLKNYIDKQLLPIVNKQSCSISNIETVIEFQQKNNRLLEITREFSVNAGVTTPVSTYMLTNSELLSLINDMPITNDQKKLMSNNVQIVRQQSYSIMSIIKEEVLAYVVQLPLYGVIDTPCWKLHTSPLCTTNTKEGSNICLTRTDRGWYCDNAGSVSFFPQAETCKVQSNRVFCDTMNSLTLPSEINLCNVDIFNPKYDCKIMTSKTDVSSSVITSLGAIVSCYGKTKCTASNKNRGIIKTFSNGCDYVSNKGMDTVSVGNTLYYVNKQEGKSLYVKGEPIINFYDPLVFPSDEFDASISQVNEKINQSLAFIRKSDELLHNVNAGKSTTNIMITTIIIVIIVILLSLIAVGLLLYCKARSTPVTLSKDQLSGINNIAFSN
T3 sequence (P03420 26-109): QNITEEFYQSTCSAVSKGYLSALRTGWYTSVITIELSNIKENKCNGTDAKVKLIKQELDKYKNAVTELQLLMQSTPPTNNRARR
T2 sequence (P03420 163-207, added parts left off): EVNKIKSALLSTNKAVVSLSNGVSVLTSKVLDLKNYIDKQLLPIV
T1 sequence (O36634 163-207, added parts left off): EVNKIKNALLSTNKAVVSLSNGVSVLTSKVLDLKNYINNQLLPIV

| Molecule | pIC50 [3, 4] | other results |
| --- | --- | --- |
| CC[C@@H](C)[C@@H](NC(C)=O)C(=O)N[C@H](CO)C(=O)N[C@H](CC(C)C)C(=O)N1CCC[C@@H]1C(=O)N[C@@H](C(=O)N1CCC[C@@H]1C(=O)N[C@@H](C(=O)N[C@H](Cc1c[nH]c2ccccc12)C(=O)N[C@H](Cc1c[nH]c2ccccc12)C(=O)N1CCC[C@@H]1C(=O)N[C@H](CO)C(=O)N[C@@H](C(=O)NCC(=O)NCC(=O)NCCOCCOCCOCCOCCOCCOCCC(=O)N[C@H](CCCCN)C(N)=O)[C@H](C)O)[C@H](C)O)[C@H](C)O [Ac-X12-45-GG(PEG6)K] (Ac-[dI][dS][dL][dP][dT][dP][dT][dW][dW][dP][dS][dT]GG[PEG6][dK]-NH2) | – | pKd [1]: 4.70 |
| CC(C)C[C@@H](NC(=O)[C@@H](CCC(=O)O)NC(=O)[C@@H](Cc1ccccc1)NC(=O)[C@@H](Cc1c[nH]c2ccccc12)NC(=O)[C@H](N)CCCNC(=N)N)C(=O)N1CCC[C@@H]1C(=O)N[C@H](CCC(=O)O)C(=O)N1CCC[C@@H]1C(=O)N[C@H](CC(=O)O)C(=O)N[C@H](Cc1c[nH]c2ccccc12)C(=O)N[C@H](Cc1c[nH]c2ccccc12)C(=O)NCC(=O)NCCOCCOCCOCCOCCOCCOCCC(=O)N[C@H](CCCCN)C(N)=O [RSVP1-G(PEG6)K] (H-[dR][dW][dF][dE][dL][dP][dE][dP][dD][dW][dW]G[PEG6][dK]-NH2; N-terminus assumed) | – | pKd [2]: 6.00 |
| CC[C@H](C)[C@H](NC(=O)[C@H](Cc1ccccc1)NC(=O)[C@H](C)NC(=O)[C@H](CC(C)C)NC(=O)[C@H](CO)NC(=O)[C@H](CCC(N)=O)NC(=O)[C@H](CC(N)=O)NC(=O)[C@@H](NC(=O)[C@H](CCCCN)NC(=O)[C@H](CCC(=O)O)NC(=O)[C@H](CC(N)=O)NC(=O)[C@@H](NC(=O)[C@H](CCC(N)=O)NC(=O)[C@H](CO)NC(=O)[C@@H](NC(=O)[C@H](CO)NC(=O)[C@H](C)NC(=O)[C@H](CC(=O)O)NC(=O)[C@H](Cc1ccccc1)NC(=O)CNC(=O)[C@@H](N)Cc1ccc(O)cc1)[C@@H](C)CC)C(C)C)[C@@H](C)CC)C(=O)N[C@@H](CCCNC(=N)N)C(=O)N[C@@H](CCCCN)C(=O)N[C@@H](CO)C(=O)N[C@@H](CC(=O)O)C(=O)N[C@@H](CCC(=O)O)C(=O)N[C@@H](CC(C)C)C(=O)N[C@@H](CC(C)C)C(=O)N[C@@H](Cc1c[nH]cn1)C(=O)N[C@@H](CC(N)=O)C(=O)N[C@H](C(=O)N[C@@H](CC(N)=O)C(=O)N[C@@H](C)C(=O)NCC(=O)N[C@@H](CCCCN)C(=O)N[C@@H](CO)C(=O)N[C@H](C(=O)NCC(=O)N[C@@H](CSCC(=O)O[C@H]1CC[C@@]2(C)C(=CC[C@H]3[C@@H]4CC[C@H]([C@H](C)CCCC(C)C)[C@@]4(C)CC[C@@H]32)C1)C(N)=O)[C@@H](C)O)C(C)C [YG-T118-GC-Cholesterol, reference compound] (H-YGFDASISQVNEKINQSLAFIRKSDELLHNVNAGKSTGC(X4)-NH2; N-terminus and C-terminus assumed) | – | pIC50 ([3]; (L) inhibitors of RSV, controls for D-peptide studies, assay not stated in Table 6): 6.19 |
| I: Ac-[dK][PEG6]G[dA][dC][dR][dN][dE][dP][dH][dW][dL][dL][dD][dW][dC][dA][dA]-NH2 / II: Ac-[dK][PEG6]G[dA][dC][dR][dN][dE][dP][dH][dW][dL][dL][dD][dW][dC][dA][dA]-NH2 / III: Ac-[dK][PEG6]G[dA][dC][dR][dN][dE][dP][dH][dW][dL][dL][dD][dW][dC][dA][dA]-NH2 (linker I:1-II:1-III:1 via X3; disulfide I:5-I:16, II:5-II:16, III:5-III:16) [Chol-Ac-K(PEG6)-RSVP20-trimer] | 5.10 | – |
| I: Ac-[dK][PEG6]G[dH][dA][dC][dV][dN][dR][dP][dE][dW][dL][dL][dD][dW][dC]G[dR]G[dR][dR]-NH2 / II: Ac-[dK][PEG6]G[dH][dA][dC][dV][dN][dR][dP][dE][dW][dL][dL][dD][dW][dC]G[dR]G[dR][dR]-NH2 / III: Ac-[dK][PEG6]G[dH][dA][dC][dV][dN][dR][dP][dE][dW][dL][dL][dD][dW][dC]G[dR]G[dR][dR]-NH2 (linker I:1-II:1-III:1 via X3; disulfide I:6-I:17, II:6-II:17, III:6-III:17) [Chol-Ac-K(PEG6)G-RSVP26-GRR-trimer] | 6.31 | – |
| I: Ac-[dK][PEG6][dD][dD]G[dH][dA][dC][dV][dN][dR][dP][dE][dW][dL][dL][dD][dW][dC]G[dR]-NH2 / II: Ac-[dK][PEG6][dD][dD]G[dH][dA][dC][dV][dN][dR][dP][dE][dW][dL][dL][dD][dW][dC]G[dR]-NH2 / III: Ac-[dK][PEG6][dD][dD]G[dH][dA][dC][dV][dN][dR][dP][dE][dW][dL][dL][dD][dW][dC]G[dR]-NH2 (linker I:1-II:1-III:1 via X3; disulfide I:8-I:19, II:8-II:19, III:8-III:19) [Chol-Ac-K(PEG6)DDG-RSVP26-trimer] | 5.49 | – |
| I: Ac-[dK][PEG6][dD][dD]G[dH][dA][dC][dV][dN][dR][dP][dE][dW][dL][dL][dD][dW][dC][dD][dH]-NH2 / II: Ac-[dK][PEG6][dD][dD]G[dH][dA][dC][dV][dN][dR][dP][dE][dW][dL][dL][dD][dW][dC][dD][dH]-NH2 / III: Ac-[dK][PEG6][dD][dD]G[dH][dA][dC][dV][dN][dR][dP][dE][dW][dL][dL][dD][dW][dC][dD][dH]-NH2 (linker I:1-II:1-III:1 via X3; disulfide I:8-I:19, II:8-II:19, III:8-III:19) [Chol-Ac-K(PEG6)DDG-RSVP28-trimer] | 6.62 | – |
| I: Ac-[dK][PEG6][dD][dD]G[dH][dE][dC][dV][dN][dR][dP][dE][dW][dL][dL][dD][dW][dC][dE][dH]-NH2 / II: Ac-[dK][PEG6][dD][dD]G[dH][dE][dC][dV][dN][dR][dP][dE][dW][dL][dL][dD][dW][dC][dE][dH]-NH2 / III: Ac-[dK][PEG6][dD][dD]G[dH][dE][dC][dV][dN][dR][dP][dE][dW][dL][dL][dD][dW][dC][dE][dH]-NH2 (linker I:1-II:1-III:1 via X3; disulfide I:8-I:19, II:8-II:19, III:8-III:19) [Chol-Ac-K(PEG6)DDG-RSVP27-trimer] | 6.85 and 7.05 and 7.06 | – |
| I: Ac-[dK][PEG6][dD][dD]G[dS][dA][dC][dV][dN][dR][dP][dE][dW][dL][dL][dD][dW][dC]G[dT]-NH2 / II: Ac-[dK][PEG6][dD][dD]G[dS][dA][dC][dV][dN][dR][dP][dE][dW][dL][dL][dD][dW][dC]G[dT]-NH2 / III: Ac-[dK][PEG6][dD][dD]G[dS][dA][dC][dV][dN][dR][dP][dE][dW][dL][dL][dD][dW][dC]G[dT]-NH2 (linker I:1-II:1-III:1 via X3; disulfide I:8-I:19, II:8-II:19, III:8-III:19) [Chol-Ac-K(PEG6)DDG-RSVP29-trimer] | 6.92 and 7.00 | – |
| I: Ac-[dS][dM][dC][dV][dN][dR][dP][dE][dW][dL][dL][dD][dW][dC]G[dT]G[dD][dD][PEG6][dK]-NH2 / II: Ac-[dS][dM][dC][dV][dN][dR][dP][dE][dW][dL][dL][dD][dW][dC]G[dT]G[dD][dD][PEG6][dK]-NH2 / III: Ac-[dS][dM][dC][dV][dN][dR][dP][dE][dW][dL][dL][dD][dW][dC]G[dT]G[dD][dD][PEG6][dK]-NH2 (disulfide I:3-I:14, II:3-II:14, III:3-III:14; linker I:21-II:21-III:21 via X3) [Chol-Ac-RSVP24-GDD(PEG6)K-trimer] | 7.01 | – |
| I: [dK][dK]G[dA][dA][dA][dA][dR][dW][dF][dE][dL][dP][dE][dP][dE][dW][dW]G[PEG6][dK]G[dK]G-NH2 / II: [dK][dK]G[dA][dA][dA][dA][dR][dW][dF][dE][dL][dP][dE][dP][dE][dW][dW]G[PEG6] / III: [dK][dK]G[dA][dA][dA][dA][dR][dW][dF][dE][dL][dP][dE][dP][dE][dW][dW]G[PEG6] (amide I:21-II:C, I:23-III:C) [KKGAAAA-RSVP7-G(PEG6)-Tricasso] | – | pIC50 ([3]; synthesized peptide, syncytia reduction assay using RSV-A F protein): 4.86 and 5.13 |
